Results from the RNAGym collection of RNA variant scans (doi:10.7554/elife.90254).
The source gives no read counts; variants with many changes may rest on few reads.

B1: LINE1-mini (parent)
chain: GGCAGAGCUCAACACAGCGUGGCAAAGUGGCUGUGGCUAGACUGCC

Variants of: B1
Experiment: self-cleavage, relative activity (ratio to wild type); higher = more cleavage; in vitro, sequencing; the parent is a self-cleaving ribozyme
Variant C8U A12U C13G has a self-cleavage of 0.04. Work on C8U U9C A26C G35A yielded a self-cleavage of 0.04. C8U G29U G30C C31U showed a self-cleavage of 1.1. In the case of C8U C23U A26C, the self-cleavage is reported as 0.11. C8U G22U G29U C42A showed a self-cleavage of 0.07. In the case of C8U G29C G35A, the self-cleavage is reported as 0.08. With U9C A25U G44C the self-cleavage was 0.02. Variant C8U G30U A39G has a self-cleavage of 0.03. In the case of U9C C10G U20G G21U G27A, the self-cleavage is reported as 0.02. Work on U9C A11U A12U C37A yielded a self-cleavage of 0.01. With U9A A12U A16C G21A A25C the self-cleavage was 0.02. C8U G21U G35U showed a self-cleavage of 0.38. U9A A12C U20A G22C showed a self-cleavage of 0.01. U9A C15A C18A showed a self-cleavage of 0.15. In the case of C8U G17C C42A C45A, the self-cleavage is reported as 0.06. With C8U G17U U32A the self-cleavage was 0.1. Work on U9A C15A A26C U28A yielded a self-cleavage of 0.04. For U9A A11G A12G A14C, the self-cleavage was 0.02. With C8U C10G U32C U38C A41U the self-cleavage was 0.01. In the case of U9A C13U U38A, the self-cleavage is reported as 0.24. U9A G22C A26G U32C A39C showed a self-cleavage of 0.04. With U9A A11G A16U G36U the self-cleavage was 0.02. Work on C8U A12U G17C U20C yielded a self-cleavage of 0.06. With C8U A26U C37G A41G the self-cleavage was 0.07. In the case of C8U C13G G17A U20A, the self-cleavage is reported as 0.06. C8U C31G A39C gave a self-cleavage of 0.49. U9C A41G C42A gave a self-cleavage of 0.01. For U9A C13A U43C, the self-cleavage was 0.21. Work on C8U G21U G22U G27A G36U yielded a self-cleavage of 0.17. Variant U9A G30A U34C has a self-cleavage of 0.18. U9A C10G G19U U20A A39U C42G showed a self-cleavage of 0.02. U9A A24C A25G U28C G30A G44U gave a self-cleavage of 0.03. U9A G22A G33U C46G gave a self-cleavage of 0.08. U9A C10U C18U G19C G29U showed a self-cleavage of 0.07. In the case of U9C A16U C42U U43G, the self-cleavage is reported as 0.02. Variant U9A G22U C45U has a self-cleavage of 0.34. With U9A C10U U28C the self-cleavage was 0.02. Variant U9A A16U A41G has a self-cleavage of 0.03. Variant C8U U9A G22A G30C G35A G36A C37A has a self-cleavage of 0.05. In the case of U9A C13G G22U, the self-cleavage is reported as 0.06. Variant U9A C15G G30C has a self-cleavage of 0.08. In the case of U9C C10A G17A G19U C46A, the self-cleavage is reported as 0.03. For C8U U34G C46U, the self-cleavage was 0.08. In the case of U9C C13G G21U, the self-cleavage is reported as 0.03. Work on C8U U9C C15G A24U U38G A41G yielded a self-cleavage of 0.03. In the case of C8U A14C G33A, the self-cleavage is reported as 0.08. U9A G30C A41G C45G showed a self-cleavage of 0.16. U9A G19U A41U gave a self-cleavage of 0.08. For U9A C23U G36A C45U, the self-cleavage was 0.82. U9C A11U G36C showed a self-cleavage of 0.04. With C8U C15G G21C G36U A39U the self-cleavage was 0.03. Work on C8U G35C G44C yielded a self-cleavage of 0.09. C8U G21U G22A G30A C31U showed a self-cleavage of 0.02. U9A C10A C42A gave a self-cleavage of 0. For C8U C31A G40A, the self-cleavage was 0.01. In the case of U9A A26C G27C U32G, the self-cleavage is reported as 0.03. Variant U9A G19C G27C U28G G40A has a self-cleavage of 0.01. Variant C8U G22A A25C C37G has a self-cleavage of 0.07. For U9A G21U U38A C45A, the self-cleavage was 0.11. In the case of C8U U9C C10A G19U G36A, the self-cleavage is reported as 0. Work on U9A G33A C45U yielded a self-cleavage of 0.13. Variant U9A U20G A26C G29A U34A C46A has a self-cleavage of 0.09. For U9A C18G G36U C37G, the self-cleavage was 0.07. Work on U9C C10A U34A yielded a self-cleavage of 0.01. For U9A C10G A11C C31A G33A, the self-cleavage was 0.01. For C8U U9G A25G G30A U38G, the self-cleavage was 0.78. With C8U U34A G35U C42U the self-cleavage was 0.01. With C8U G19A C45G the self-cleavage was 0.06. U9A A14U C45A showed a self-cleavage of 0.23. For C8U A16C G17A G19A G29C, the self-cleavage was 0.07. U9A G17U A24U C42G gave a self-cleavage of 0.09. Variant C8U U20G G29U has a self-cleavage of 0.19. With U9A G17A U38A the self-cleavage was 0.08. With U9A G19C A26C G33U C45G the self-cleavage was 0.16. U9A G19U U20G gave a self-cleavage of 0.23. Variant C8U G29C A41U has a self-cleavage of 0.25. With U9C A14C G22A A25G the self-cleavage was 0.01. Work on U9C C13A G40A C46U yielded a self-cleavage of 0. C8U A12C C18U U28G C31A gave a self-cleavage of 0.04. C8U A16G C23G G30A showed a self-cleavage of 0.08. In the case of C8U G27A G29C C31G U38C, the self-cleavage is reported as 0.03. C8U U38G C42A gave a self-cleavage of 0. U9A C15G A26C G29A G30U C45U showed a self-cleavage of 0.05. With C8U A14U G27C G29U U43A the self-cleavage was 0.02. Work on U9A C13U A16U G27A yielded a self-cleavage of 0.1. With C8U G21A C23A U28A G35C the self-cleavage was 0.33. U9C C13G G17C G21U U32G gave a self-cleavage of 0.01. With C8U U28C G35A C37U the self-cleavage was 0.02. With U9A A11C A12U A16C C23U the self-cleavage was 0. Work on C8U C10U C31U yielded a self-cleavage of 0.02. C8U G19A G29C showed a self-cleavage of 0.65. C8U C31A G35U A41C showed a self-cleavage of 0.06. C8U C18A A26U G35U G40A showed a self-cleavage of 0.02. Work on C8U C10A C15G yielded a self-cleavage of 0.05. U9A A14U C15U A16C G17A showed a self-cleavage of 0.02. Work on C8U C10U G30U U38G yielded a self-cleavage of 0.09. C8U G21U G33A G35U showed a self-cleavage of 0.07. In the case of U9A G29A G35U U38A, the self-cleavage is reported as 0.21. U9A A12C G21U G22C A24U C31A A41G G44A gave a self-cleavage of 0.01. C8U G17A C18U showed a self-cleavage of 0.07. U9A C23A C31U gave a self-cleavage of 0.04. For U9C A12U C23G G40U, the self-cleavage was 0.01. In the case of U9A C10G A25U C31U U43C, the self-cleavage is reported as 0.02. For C8U C15A U43A, the self-cleavage was 0.21. Variant U9C C13G A16U G40A has a self-cleavage of 0.01. Work on C8U C10A A11U G19C C23A yielded a self-cleavage of 0.02. With C8U C15U G22C C37U U38C the self-cleavage was 0.19. For C8U C18G C37U C45A, the self-cleavage was 0.04. For U9C A25C C46G, the self-cleavage was 0.02. U9A A16U C23A G30U A41C gave a self-cleavage of 0.03. For U9A G30U U32A C37A, the self-cleavage was 0.01. For C8U C13U A24U G33C G44U, the self-cleavage was 0.25. C8U A11U U28G gave a self-cleavage of 0.03. Variant U9A C13A G33U G44C C46U has a self-cleavage of 0.02. For C8U U32A U34A G44C, the self-cleavage was 0.03. Work on C8U G21A G35U U38A yielded a self-cleavage of 0.47. In the case of C8U U9A C10U A11G C37U, the self-cleavage is reported as 0.04. For C8U G30C U32C, the self-cleavage was 0.04. Variant C8U C10U A41C has a self-cleavage of 0.1. Variant U9A G22A G29U has a self-cleavage of 0.17. For U9A A12C C13U G33U A41G, the self-cleavage was 0. Work on U9A A26G G40U G44U yielded a self-cleavage of 0.23. Variant C8U C10U G21U has a self-cleavage of 0.02. With C8U C15U G33U U38G the self-cleavage was 0.01. Variant C8U C13U C23U G40A has a self-cleavage of 0.01. In the case of U9A A41U C42G, the self-cleavage is reported as 0.01. In the case of C8U U34C A39C, the self-cleavage is reported as 0.03. U9C C10U C15A G40C C46G showed a self-cleavage of 0.02. Work on C8U U32G G33C A41C yielded a self-cleavage of 0.01. In the case of C8U C15G C42G G44C, the self-cleavage is reported as 0.11. Variant U9A A12G A26G C31A G33C has a self-cleavage of 0.03. Variant U9C A26G U28C C37G A41U has a self-cleavage of 0.01. C8U G21U U28C gave a self-cleavage of 0.03. C8U A26U U32C G35U gave a self-cleavage of 0.22. In the case of C8U C23U U34C, the self-cleavage is reported as 0.15. In the case of U9A A25G C45A, the self-cleavage is reported as 0.3. With U9A C13A G21A G27U C46A the self-cleavage was 0.18. In the case of C8U C13A A24C, the self-cleavage is reported as 0.1. In the case of C8U A12U C42U, the self-cleavage is reported as 0.58. C8U C37A G44C C45U showed a self-cleavage of 0.01. With C8U U9C C15G the self-cleavage was 0.05. U9C A16C G35A G36A gave a self-cleavage of 0.02. With C8U U9A C15A G19C C46G the self-cleavage was 0.19. In the case of U9A C10U U38C, the self-cleavage is reported as 0.15. Variant C8U C18U C31U has a self-cleavage of 0.07. Work on C8U G33U G40U yielded a self-cleavage of 0.09. For U9C A16C C18A A24G G33C A41C, the self-cleavage was 0.02. For U9A C15U G19C U38C, the self-cleavage was 0.32. Work on C8U G19U G22U yielded a self-cleavage of 0.03. Work on U9A A16U C31U yielded a self-cleavage of 0.04. C8U G19A G35A gave a self-cleavage of 0.31. U9C A12U A39C G40C C46U gave a self-cleavage of 0.02. Work on C8U C13U A25U C45A yielded a self-cleavage of 0.37. With U9A G17U A26U G27U G29A the self-cleavage was 0.03. For U9C C10U C15A U38A, the self-cleavage was 0.02. For C8U U32C A41C C46G, the self-cleavage was 0.12. For C8U G22U U38C, the self-cleavage was 0.21. For U9C A11G U28C, the self-cleavage was 0.01. For U9A U34A G40U, the self-cleavage was 0.04. With U9A G17C G33A the self-cleavage was 0.05. U9A C10G G17A C45A gave a self-cleavage of 0.04. Work on U9A G19C U20A G30C U43G G44A yielded a self-cleavage of 0.44. U9A A26C U28G showed a self-cleavage of 0.08. Variant C8U C10A A11C U28G has a self-cleavage of 0.02. In the case of U9A A11C A24U G35A, the self-cleavage is reported as 0.01. In the case of C8U A12C G22A, the self-cleavage is reported as 0.03. Work on C8U A26C U34C A39G C45A yielded a self-cleavage of 0.08.
